Source: PubChem BioAssay AID1645887 (National Center for Advancing Translational Sciences (NCATS), 2021)
Several values for one entry are separate records, joined by “and”; a condition that tells them apart may be missing. Identical values can stand only once. Hit rate of the full screen: of about 16,000 compounds, about 40 (0.2%) were called active. About 1% were inconclusive and are not listed. Calls come from the whole dose curve; as a rule, active = well fitted activation curve with a large enough effect; inconclusive = small, poorly fitted or top-dose-only effect, or another doubt; inactive = no such curve, though single readings can be large or run the other way. This is one part of the list.

target: Rap guanine nucleotide exchange factor 4 (Homo sapiens) (UniProt Q8WZA2); assay: Validation qHTS for agonist of cAMP-regulated guanine nucleotide exchange factor 4 (EPAC2); conditions: EPAC2 Rap1B BODIPY-GDP exchange, fluorescence; activation: active compounds read high;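 note: exchange makes BODIPY-GDP fluorescence drop when released from Rap1B; series mostly up to about 150 µM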
How it was run: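 Fluorescent exchange assay: 100 nM EPAC2 with 250 nM RAP1B-BODIPY-GDP and 50 uM GDP; compound added, 5 min at room temperature, then read (ex 480/em 540 nm) every 5 min for 30 min. Normalized to 6.5 mM cAMP agonist control.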
% is set by controls: 0 for no effect and ±100 for the full control effect.

Chain of UniProt Q8WZA2 (Q8WZA2 whole entry, looked up): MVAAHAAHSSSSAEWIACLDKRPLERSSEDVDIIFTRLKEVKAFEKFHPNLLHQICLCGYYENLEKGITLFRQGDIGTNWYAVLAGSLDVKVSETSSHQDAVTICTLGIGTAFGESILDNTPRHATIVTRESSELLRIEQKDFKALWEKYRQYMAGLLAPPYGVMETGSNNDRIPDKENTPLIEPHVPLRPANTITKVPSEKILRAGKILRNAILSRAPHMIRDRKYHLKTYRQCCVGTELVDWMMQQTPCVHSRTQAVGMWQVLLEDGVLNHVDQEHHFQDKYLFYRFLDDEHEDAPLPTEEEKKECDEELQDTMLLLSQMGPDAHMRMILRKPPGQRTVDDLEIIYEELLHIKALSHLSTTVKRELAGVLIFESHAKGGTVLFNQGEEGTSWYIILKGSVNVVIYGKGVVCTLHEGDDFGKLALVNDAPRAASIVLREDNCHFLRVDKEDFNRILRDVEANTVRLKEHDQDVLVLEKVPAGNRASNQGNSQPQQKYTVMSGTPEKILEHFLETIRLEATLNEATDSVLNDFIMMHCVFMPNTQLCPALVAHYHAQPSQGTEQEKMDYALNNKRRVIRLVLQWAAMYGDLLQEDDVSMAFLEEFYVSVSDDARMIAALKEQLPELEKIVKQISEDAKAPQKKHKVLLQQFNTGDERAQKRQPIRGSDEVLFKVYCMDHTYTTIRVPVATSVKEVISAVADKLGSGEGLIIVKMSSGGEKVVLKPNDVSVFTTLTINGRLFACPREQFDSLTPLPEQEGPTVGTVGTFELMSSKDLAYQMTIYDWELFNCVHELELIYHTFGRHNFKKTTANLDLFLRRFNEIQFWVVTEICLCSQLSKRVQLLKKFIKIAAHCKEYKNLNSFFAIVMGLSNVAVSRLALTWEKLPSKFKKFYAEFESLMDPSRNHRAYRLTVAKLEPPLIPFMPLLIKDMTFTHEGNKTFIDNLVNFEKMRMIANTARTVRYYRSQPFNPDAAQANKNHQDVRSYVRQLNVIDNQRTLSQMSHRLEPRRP

activation, inactive:
CO/N=C(\C(=O)N[C@@H]1C(=O)N2C(C(=O)O)=C(COC(C)=O)CS[C@H]12)c1csc(N)n1 -18.1%
CN(Cc1ccco1)c1nc(-c2ccccc2Cl)nc2ccccc12 4.05%
Cc1cnc(C)c(-c2cc(F)cc3c2OC(CNC(=O)c2cc(Cl)ccc2F)C3)n1 (stereo not drawn) -12.5%
Cc1cc2cc3c(C)cc(=O)oc3c(C)c2o1 -3.98% and 5.85%
CC(=O)Nc1c(I)cc(I)c(C(=O)O)c1I -7.72%
CN1C(C(=O)Nc2ccccn2)C(=O)c2sc(Cl)cc2S1(=O)=O (stereo not drawn) 4.29%
CO/N=C(/C(=O)N[C@@H]1C(=O)N2C(C(=O)O)=C(COC(N)=O)CS[C@H]12)c1ccco1 -20.7% and 12.8%
CC(C)(C)CC(C)(C)N=C1Nc2ccc(Cl)cc2N[C@]12C[C@H]1CCCC(=O)N3CC[C@@H](C2)[C@@H]13 -26.4%
CC(=O)Nc1nnc(S(N)(=O)=O)s1 14.9% and 8.62% and -9.53%
COc1cccc(C(=O)NC(C)c2nnc3n2CCN(CC=C(C)C)CC3)c1 (stereo not drawn) -30.4%
COC1=CC(=O)C(O)=C/C1=C\C=C\c1ccccc1 -5.7%
CC(C)Oc1ccc2c(=O)c(-c3ccccc3)coc2c1 -10.9% and -20%
O=C(Oc1ccccc1)N1CCC2(CC1)CN(c1ccccc1)C2 -5.57%
C=C1c2c(Cl)ccc(O)c2C(O)=C2C(=O)[C@]3(O)C(O)=C(C(N)=O)C(=O)[C@@H](N(C)C)[C@@H]3[C@@H](O)[C@H]12 -4.07%
Clc1ccc2nsnc2c1NC1=NCCN1 9.52% and -22.2% and -30.1%
CC(C)C1=CC2=CC[C@@H]3[C@](C)(CO)CCC[C@]3(C)C2CC1 (stereo partly drawn) -31.9%
N#Cc1ccccc1-c1ccc2ncnc(NCc3ccccc3)c2c1 -0.93%
O=[N+]([O-])c1c(Cl)cccc1-c1c[nH]cc1Cl 12.6%
COc1cccc(CNC(=O)c2c(OC)cc(=O)n3c2CCN(C(=O)c2ccoc2C)CC3)c1 -44.1%
c1ccc(-c2cccc(N3CC4(CCNCC4)C3)c2)cc1 8.37%
COc1ccc(-n2c(=O)c(-c3cn(C)c4ccccc34)nc3cnc(OC)nc32)cc1 -7.91%
CN(C)c1ccc(-c2nc(NC3CCNCC3)c3ccccc3n2)cc1 -7.16%
N#CCCn1c(=O)c(-c2ccc(Cl)cc2)nc2cnc(OCc3ccccc3)nc21 -19.5%
O=C(c1cccc(F)c1)N1CCC2(CCCN(c3ccc(-c4ccccc4)cc3)C2)CC1 -3.16%
Cc1nc(CC(=O)N2CCC(n3c(C4CCC4)nc4cccnc43)CC2)cs1 -10.7%
O=C(O)c1ccc2nc(-c3ccccc3)c(-c3ccccc3)nc2c1 11.6%
COc1cc(O)c2c(=O)cc(C)oc2c1CC=C(C)C 4.94% and -15.5%
COC(=O)N1CCC2(CCCN(c3ncccn3)C2)CC1 1.68%
O=C1CC[C@H](N2C(=O)c3ccccc3C2=O)C(=O)N1 -0.276%
OC/C=C/c1ccccc1 -13.4%
CCOC(=O)C1=C(N)Oc2ccc(Br)cc2C1C(C#N)C(=O)OCC (stereo not drawn) 9.24%
CC(C)(C)c1cc(O)c(C(C)(C)C)cc1O -11.4% and 10.5%
C=Cc1ccc(S(=O)(=O)O)cc1 -9.76%
CCC1CN(CC(=O)NC(C)c2cn(C)nc2C)Cc2cc(OC)ccc2O1 (stereo not drawn) -9.96%
CC(C)NC(=O)N1CCC2(CC1)CCN(C(=O)c1cccc(F)c1)CC2 -10.2%
CN(C)c1ncc2nc(-c3ccc(Cl)cc3)c(=O)n(CCC#N)c2n1 -2.32%
CCCCOc1cc(C(=O)OCCN(CC)CC)ccc1N 1.88%
CC1(C)S[C@@H]2[C@H](NC(=O)C(N)c3ccccc3)C(=O)N2[C@H]1C(=O)OC1OC(=O)c2ccccc21 (stereo partly drawn) 9.74%
Cc1nc2n(c(=O)c1CCN1CCC(c3noc4cc(F)ccc34)CC1)CCC[C@H]2O -4.02%
COc1ccc(C(=O)N2CCC3(CCCN(C(c4ccccc4)c4ccccc4)C3)CC2)cc1 -12.8%
CN1CCCCC1C(=O)N1CCC(Oc2cccc(CN3CCN(c4ccccn4)CC3)c2)CC1 (stereo not drawn) -0.0243%
CN(C)C(=O)c1ccc(-c2ccc3ncnc(NCc4cccs4)c3c2)cc1 -13.7%
CCCCC[C@H](O)/C=C/[C@H]1C(=O)C=C[C@@H]1C/C=C\CCCC(=O)O -10.8%
Nc1c[n+](N2CCOCC2)no1 -10.1%
CNc1nc(-c2cccc(C#N)c2)nc2ccccc12 -19.4%
C[N+](C)(C)CC(O)CC(=O)[O-] (stereo not drawn) -21.1%
CCNc1ncc2nc(-c3ccc(F)cc3)c(=O)n(CCC#N)c2n1 -8.43%
N#C/C(=C1/SC[C@@H](c2ccc(Cl)cc2Cl)S1)n1ccnc1 0.0116% and -2.32% and -5.3%
NC(N)=N[C@@H](CCC(=O)O)C(=O)O -33%
COc1cc([C@H]2Oc3cc([C@H]4Oc5cc(O)cc(O)c5C(=O)[C@@H]4O)ccc3O[C@@H]2CO)ccc1O -36.9%
CC[C@@H]1[C@H]2CCCC(=O)N3CC[C@@H](C[C@@H]1OC(=O)NCc1ccccc1)[C@@H]23 -2.95%
Nc1nc(=O)n([C@@H]2CS[C@H](CO)O2)cc1F -15.8%
O=C(c1cccc(F)c1)N1CCC2(CC1)CCN(c1ccccc1)CC2 0.837%
NC(N)=NCCCC(NC(=O)C(N)Cc1ccc(O)cc1)C(=O)O (stereo not drawn) -20.2%
CC(c1ccc(N(C)C)cc1)c1ccnc2ccccc12 (stereo not drawn) 8.47%
Cc1cc(C(=O)Nc2cccc(-c3nc(CNC(=O)c4sc(C)nc4C)c(C)o3)c2)c(C)o1 8.96%
Cc1c(C(=O)N2CCOc3ccc(Cl)cc3C2)sc2ncnc(NCCc3ccccn3)c12 -13.5%
COc1ccc(C(=O)N2CCC3(CC2)CCN(c2ccccn2)CC3)cc1 -17.2%
C[C@H]1NCc2cc(-c3ccc4c(=O)c(C(=O)O)cn(C5CC5)c4c3OC(F)F)ccc21 1.8%
C[N+]1(CC2COC(c3ccccc3)(c3ccccc3)O2)CCCCC1 (stereo not drawn) 0.308%
O=C(C[N+]1(c2ccccc2)CCOCC1)c1ccccc1 -20.6%
Cc1ccc2c(c1)CC[C@H]1CC(=O)CC[C@@]21C -4.37%
COc1cc(SC)ccc1C(=O)N1CCC(Cc2ccccc2)CC1 -30.7%
CC(=O)Nc1ccccc1-c1nc(CNC(=O)c2ccc(Cl)cc2)c(C)o1 -6.64%
Cn1cccc1C(=O)N1CCC2(CC1)CN(Cc1ccc(C#N)cc1)C2 6.55%
N#CCCn1c(=O)cnc2cnc(Oc3cccc(Cl)c3)nc21 -13.3%
Cn1c(CCNC(=O)C2CC23CCN(C(=O)C2=CCCC2)CC3)nc2ccccc21 (stereo not drawn) -1.15%
CC#C[C@]1(O)CC[C@H]2[C@@H]3CCC4=CC(=O)CCC4=C3[C@@H](c3ccc(N(C)C)cc3)C[C@@]21C -5.49% and -1.65%
Cc1csc(CN(C)C(=O)c2sc3ncnc(NCC4CCCO4)c3c2C)n1 (stereo not drawn) -1.65%
COc1ccc(-c2nc3cnc(OC)nc3n(Cc3cccs3)c2=O)cc1 -21.1%
Cc1ccc(C(=O)Nc2cccc(-c3nc(CNC(=O)C4CCCCC4)c(C)o3)c2)s1 -5.79%
O=c1c(-c2ccc(F)cc2)nc2cncnc2n1Cc1ccc(F)cc1 -14%
CCCCCCCCCCCCCCC[C@@H](O)[C@H](CO)NC(=O)CCCCCCC 3.52%
COC(=O)c1c(OCc2ccccn2)cc(=O)n2c1CCN(C(=O)c1cc(C(C)C)nn1C)CC2 6.39%
COc1cccc2c1C(=O)c1c(O)c3c(c(O)c1C2=O)C[C@@](O)(C(=O)CO)C[C@@H]3O[C@H]1C[C@H](N)[C@H](O[C@@H]2CCCCO2)[C@H](C)O1 1.58%
COc1cc([C@@H]2c3cc4c(cc3[C@@H](O[C@@H]3O[C@@H]5CO[C@@H](C)O[C@@H]5[C@H](O)[C@@H]3O)[C@H]3COC(=O)[C@H]23)OCO4)cc(OC)c1O -22.5%
COCCn1c(=O)c(-c2ccc(OC)cc2)nc2cnc(Oc3ccccc3)nc21 -39.1%
COC(=O)C1=CO[C@@H](O)[C@@H]2C(CO)=CC[C@H]12 -16.9%
CC(=O)Nc1ccn(C2COC(COC(=O)c3ccccc3)O2)c(=O)n1 (stereo not drawn) -7.22%
NC(=S)N=Nc1ccc(NN=C(N)N)cc1 -8.63%
O=C(O)C1CC(C2CCCCN2)CN2CCCCC12 (stereo not drawn) -14.9%
CCCCCCNC(=O)n1cc(F)c(=O)[nH]c1=O -20.9%
CCC[C@@H]1C[C@@H](C(=O)N[C@@H]([C@H]2O[C@H](SC)[C@H](OP(=O)(O)O)[C@@H](O)[C@H]2O)[C@H](C)Cl)N(C)C1 -3.77% and 1.89%
